The supplement of paper PMC11417369
± gives the standard deviation of the averaged measurements. The list shows a part of the results.

test system: PfAP2-EXP AP2 domain (GST-tagged); test: gcPBM binding intensity (ln(normalized median fluorescence intensity)); higher = stronger DNA binding
Procedure, shortened: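 Binding of GST-tagged P. falciparum DNA-binding domains, expressed in E. coli and used at about 25 μg on average, was carried out for 1 h in 1× PBS containing 1% milk, 0.2 mg/ml BSA, 0.5% salmon testes DNA and 0.03% Triton X-100. The target was an Agilent 4 × 180k array of primer-extended double-stranded 36-bp intergenic genomic probes plus negative controls, read with Alexa488 anti-GST antibody at 488 nm. Binding intensity is the highest Masliner-normalised natural-log median intensity across replicate spots of either probe orientation.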

Point of comparison: “TTTTTTTTTGATATTTGTACTTAAGTAAATATTATA [XGTACX_site3843]”, “gcPBM binding intensity (ln)” value 8.51 ± 0.27. Against it:
- TGTATAACCTGTGTTACACACATTAGAATTTATATA [CACACA_site6393] — within error, 8.15 ± 0.31
- TTCTCCATCAGATACTGTACATAATATATATAATAT [XGTACX_site8827] — within error, 8.82 ± 0.33
- TATATAAAGATATATACACACAAAAAAAAAAAAAAA [CACACA_site6778] — within error, 8.35 ± 0.47
- TACATAAACTTTATAACACACACTTATATATATATA [CACACA_site1106] — higher, 9.86 ± 0.18
- GCATCATTTATTTGCACACCTATTATATACTTTTTA [CACACA_site2098] — within error, 8.86 ± 0.19
- AATAAGTGTTGATTCTTAAAATGACCATATAATAAT [TGCATGCA_negctrl_site221] — within error, 8.61 ± 0.46
- TCATATTTACAAAAAGGTATTAATAAATAAAATATT [CACACA_negctrl_site259] — within error, 8.38 ± 0.4
- ATATTAGGGTCATGAACACACAAAAAAAAAAAAAAA [CACACA_site937] — within error, 8.32 ± 0.71
- TATCTTTTATAAGTGACACACATAAATATTTAAATT [CACACA_site833] — the same, 8.51 ± 0.48
- GCTATCATATCATGTTGTACACAACCTCAAAATGAA [XGTACX_site8757] — within error, 8.74 ± 0.3
- TTTAATTCTTATATTTGTACAGATTCATAATTAAAT [XGTACX_site7465] — within error, 8.41 ± 0.37
- CGTTTATTAAACTTGACACACACACCCCCACATATA [CACACA_site8151] — higher, 9.69 ± 0.31
- TATATATATATATATGCATGCCATATGATATATATA [TGCATGCA_site109] — higher, 10.3 ± 0.27
- AATCGATAACAATGTAGTACCAGAAAAATAAATATT [XGTACX_site8501] — within error, 8.99 ± 0.3
- ACATATCGGGTGCATTAACACACATTTATTTGAATA [CACACA_site8736] — within error, 9.19 ± 0.86
- ATTATATCACTGTGTTGTACTTCTTATATAAAAATA [XGTACX_site2333] — within error, 8.91 ± 0.43
- TCCGTATAATTTTGCACACGAATATAAATTTGATAA [CACACA_site136] — within error, 8.94 ± 0.26
- ATAAAAATAAAATGGACACACATATATACATATTTG [CACACA_site3277] — within error, 8.4 ± 0.37
- AATTATAATAAATAACGTACAAAAAATAAATTATTT [XGTACX_site3627] — within error, 8.55 ± 0.35
- TATATATTCATGTGTACACACAAAAAAAAATAAAGT [CACACA_site2207] — within error, 8.96 ± 0.35
- ATAAGCGAATATATATCACACACAAAAAAATCAGAC [CACACA_site8657] — higher, 9.26 ± 0.36
- ATATTACACAGATATGCACACATTGTAGTTATTTAT [CACACA_site5454] — within error, 8.61 ± 0.3
- AAAAAGGAAATTTACACACACATATAACATACATTA [CACACA_site7534] — within error, 8.62 ± 0.52
- TTTTTTTTCTAAATTATATGAAAATATATGTTATGT [GTGCAC_negctrl_site85] — within error, 8.12 ± 0.38
- ATTTTCTATTTTATTTGTACGTAATTTAATTTTTTT [XGTACX_site3609] — within error, 8.96 ± 0.56
- ACAATTTTAAAATGAACACACATGTTTTTCTTACTT [CACACA_site1014] — within error, 8.68 ± 0.5
- TACATAAACATTTATACACACATTATAAATACATAT [CACACA_site4386] — within error, 8.53 ± 0.45
- ATAAATCCATGTAACTGTACTTTTTTTTTTTTTTTT [XGTACX_site7373] — higher, 8.82 ± 0.028
- ATAAAGATTAATAAAATAAAATTCCGCAAACATATA [CACACA_negctrl_site244] — within error, 8.5 ± 0.47
- TTTTGAAATTTTTGTGTTTTTCCTTTTTATTTTATA [CACACA_negctrl_site1740] — within error, 8.48 ± 0.49
- TCCCAATTTCTATCCTGTACAGACATAAATATATAC [XGTACX_site5937] — within error, 9.06 ± 0.53
- AAGTAATTTGTTGACACACACACACGCATACCTATA [CACACA_site7140] — within error, 8.71 ± 0.34
- AATGTAATATAAATATGTACATATAAACTATATATA [XGTACX_site6871] — within error, 8.55 ± 0.37
- ATTATATATATATATATATATATATATATATTATAT [CACACA_negctrl_site234] — within error, 8.74 ± 0.071
- GTTTTAAAACAAATATGTACACATAATATAGGAAAG [XGTACX_site1803] — within error, 9.07 ± 0.3
- ACTTATGATTTATTTTGTACATATATACTATTCCTG [XGTACX_site5275] — within error, 9.11 ± 0.35
- GCTCCTTTTACCATCGCACACGATAAAAAAAAATAA [CACACA_site3255] — within error, 8.88 ± 0.38
- ACAAATACTAACAACGCATGTAAGCCTACAATAAAT [TGCATGCA_site551] — within error, 8.91 ± 0.33
- ATCCTCTTTTTAAGTTGTACAGGGTCGAAAAAAAAA [XGTACX_site6852] — within error, 8.64 ± 0.57
- GATTATTATTATAAGGGTACAAATATTTAATAAAAA [XGTACX_site7144] — within error, 8.74 ± 0.4
- AAAAAAAAATAAAAAAGTACATTCATTTTATAAGAT [XGTACX_site3507] — within error, 8.41 ± 0.42
- CATGTCAAAATTATACGTACATATATAAGTTCCATT [XGTACX_site6331] — within error, 8.65 ± 0.33
- AGATAGCTATTAAAAAGTACAAAAAAATATATATAT [XGTACX_site6289] — higher, 9.31
